Experimental data from PubChem BioAssay (NCI).
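Assay format: 96-well plates, 48-hour exposure. At the GI50, growth is halved. Definition used: TGI = concentration required for complete inhibition of growth.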 Square brackets hold non-standard residues; d marks the D form. Peptide text beside a SMILES is read from it. * marks the point of attachment. Decanoyl = CCCCCCCCCC(=O)*; Leu(ol) = CC(C)C[C@H](N)CO; Iva = CC[C@](C)(N)C(=O)O; Aib = CC(C)(N)C(=O)O

test system: NCI-H322M lung; assay: growth of human tumour cells (NCI), 48 h

| SMILES | GI50 | TGI |
| --- | --- | --- |
| COC(=O)c1ccc(NC2=C(Cl)C(=O)C(C)=C(C)C2=O)cc1 | > 100 µM | > 100 µM |
| CCOC(=O)c1ccc(NC2=C(Cl)C(=O)c3nc(C)ccc3C2=O)cc1 | 16.6 µM | 33 µM |
| CCCCCCCCCC(=O)N[C@@](C)(CC)C(=O)N1CCC[C@H]1C(=O)N[C@@H](CC(C)C)C(=O)N[C@@](C)(CC)C(=O)N[C@@H](CCC(N)=O)C(=O)N[C@H](CCC(N)=O)C(=O)NC(C)(C)C(=O)NC(C)(C)C(=O)N[C@@H](CCC(N)=O)C(=O)N[C@H](CC(C)C)C(=O)N[C@H](CO)CC(C)C (Decanoyl-[Iva]PL[Iva]Q[dQ][Aib][Aib]Q[dL][Leu(ol)]) | 6 µM | 18.9 µM |
